Structures can show the parent of a compound that is named as a salt. Some of the results follow. Rule as the data show it: active = -2 or less and inactive = the rest. Many values rest on one well or one pass, so single values are uncertain.

Results on 21 compounds are retold here after the supplement of paper PMC11348887.
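Also: nuclei counted from DAPI counterstain by automated high-content image analysis, four fields per well at ×20 in 384-well plates, with sequential b-score then z-score normalization.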

The subject of this test is hPSC-derived cortical neurons (WA09). Nature of the test: nuclei number (viability) z-score; higher = more surviving cells. As to conditions: 5 µM; treatment: days 7-14 after plating, readout day 21.
For `COc1ccc(CNC(=O)Nc2ncc([N+](=O)[O-])s2)cc1`, the “nuclei number (z-score)” value is inactive: 0.21. Take `Cn1c2ccccc2c2c3c(c4c5ccccc5n(CCC#N)c4c21)CNC3=O`: the “nuclei number (z-score)” value was inactive: 0.586. Turning to `OCCOCCN1CCN(C(c2ccccc2)c2ccc(Cl)cc2)CC1` (stereo unspecified) [Hydroxyzine 2HCl], the “nuclei number (z-score)” value is inactive: -1.73.

As for `O=C(NS(=O)(=O)c1ccc(Br)s1)c1ccc(Cl)cc1Cl` [Tasisulam], the “nuclei number (z-score)” value was inactive: 0.876. `C/C(=N\NC(=O)c1cccc(S(=O)(=O)N2CCOCC2)c1)c1cc(Cl)ccc1O`: the “nuclei number (z-score)” value was inactive: 0.568. In the case of `[I-].[K+]` [Potassium Iodide] it was inactive: 0.673; in that of `Cc1ccccc1N1C(=O)c2cc(S(N)(=O)=O)c(Cl)cc2NC1C` (stereo unspecified) [Metolazone], inactive: 0.606; in that of `Cc1cc(-n2c(=O)[nH]c(=O)n(C)c2=O)ccc1Oc1ccc(SC(F)(F)F)cc1` [Toltrazuril], inactive: 0.671. Consider `CN(CCOc1ccc(CC2SC(=O)NC2=O)cc1)c1ccccn1` (stereo unspecified) [Rosiglitazone], for which the “nuclei number (z-score)” value was inactive: -0.371. The result for `CN(CCOc1ccc(CC2SC(=O)NC2=O)cc1)c1ccccn1` (stereo unspecified) [Rosiglitazone maleate] reads inactive: -0.479.

Regarding `CN(CCOc1ccc(CC2SC(=O)NC2=O)cc1)c1ccccn1` (stereo unspecified) [Rosiglitazone HCl], the “nuclei number (z-score)” value was inactive: 7.15. In the case of `O=C(NCC(=O)N1CCCC1)Nc1ccc2cnccc2c1` it was inactive: -0.106; in that of `CC(N)C12CC3CC(CC(C3)C1)C2` (stereo unspecified) [Rimantadine], inactive: -0.0964; in that of `COc1ccc(C[C@@H]2c3cc(OC)c(OC)cc3CC[N@+]2(C)CCC(=O)OCCCCCOC(=O)CC[N@@+]2(C)CCc3cc(OC)c(OC)cc3[C@H]2Cc2ccc(OC)c(OC)c2)cc1OC` [Cisatracurium Besylate], inactive: 0.843. The result for `CCOC(=O)c1c(C)n(C)c2ccc(O)cc12` [Mecarbinate] reads inactive: 0.143.

Take `Fc1cc(-c2cccc3ncc(-c4cnn(C5CCNCC5)c4)nc23)cc(F)c1CN1CCOCC1`: the “nuclei number (z-score)” value was active: -7.38. For the compound `O=C(O)CC[C@@H](O)C(=O)O` [Disodium (R)-2-Hydroxyglutarate], the “nuclei number (z-score)” value was inactive: 0.555.

In the case of `Brc1c(NC2=NCCN2)ccc2nccnc12` [Brimonidine Tartrate], the “nuclei number (z-score)” value is inactive: 0.0554. The result for `CN(C)CCOC(=O)COc1ccc(Cl)cc1` [Meclofenoxate (Centrophenoxine) HCl] reads inactive: 0.172; that for `C[C@H](Oc1cc(-c2cnn(C3CCNCC3)c2)cnc1N)c1c(Cl)ccc(F)c1Cl` [(S)-crizotinib], inactive: -1.21; that for `CCCCCCCCCC(=O)N[C@H]1[C@H](Oc2c3cc4cc2Oc2ccc(cc2Cl)[C@@H](O[C@@H]2O[C@H](CO)[C@@H](O)[C@H](O)[C@H]2NC(C)=O)[C@@H]2NC(=O)[C@H](NC(=O)[C@@H]4NC(=O)[C@H]4NC(=O)[C@@H](Cc5ccc(c(Cl)c5)O3)NC(=O)[C@H](N)c3ccc(O)c(c3)Oc3cc(O)cc4c3)c3ccc(O)c(c3)-c3c(OC4O[C@H](CO)[C@@H](O)[C@H](O)[C@@H]4O)cc(O)cc3[C@@H](C(=O)O)NC2=O)O[C@H](CO)[C@@H](O)[C@@H]1O` (stereo partly specified) [Teicoplanin], inactive: 11.2.
